Nine variants from the supplement of paper PMC12217912 can be followed below.

Some of the results follow. The full chains were built here from the parent and the listed change. Values near 0.05 are background.

The chains are these.
B1: TEV protease; numbered along this chain (parent)
chain: MGESLFKGPRDYNPISSSICHLTNESDGHTTSLYGIGFGPFIITNKHLFRRNNGTLVVQSLHGVFKVKDTTTLQQHLVDGRDMIIIRMPKDFPPFPQKLKFREPQREERICLVTTNFQTKSMSSMVSDTSCTFPSGDGIFWKHWIQTKDGQCGSPLVSTRDGFIVGIHSASNFTNTNNYFTSVPKNFMELLTNQEAQQWVSGWRLNADSVLWGGHKVFMVKPEEPFQPVKEATQL

The variants in the experiment derive from B1. The experiment can be described thus: raw area under fraction-flipped curve 0-4 h after induction (AUC4h, not background-subtracted), DNA-recorder readout of cleavage of the substrate (dimensionless); higher = more cleavage of the substrate by the protease variant. Conditions: temperature: 34 °C; time window: 0-4 h after rhamnose induction. The protocol: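 In vivo DNA recorder in E. coli TOP10(DE3) ΔrhaA at 34 °C. Each TEVp single-site mutant (parent TEVp 0) is paired with a single-site variant of the 7-mer TEVs (canonical ENLYFQ|S). The substrate sits between flexible linkers in a Bxb1-sfGFP-TEVs-SsrA fusion, so cleavage stabilises Bxb1 and speeds flipping of a recombination array, read by NGS. The value is the raw area under the fraction-flipped curve over 0-4 h after rhamnose induction (AUC4h), with ≥20 reads per time point. It is not background-subtracted; inactive controls average about 0.047.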
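Note: Bxb1 expression induced with 0.2% (w/v) L-rhamnose at OD600 near 0.5, cultures sampled hourly, flipped fraction per protease–substrate barcode pair counted by paired-end Illumina sequencing.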

As to MGESLFKGPRDYNPISSSICHLTNESDGHTTSLYGIGFGPFIITNKHLFRRNNGTLVVQSLHGVFKVKDTTTLQQHLVDGRDMIIIRMPKDFPPFPQKLKFREPQREERICLVTTNFQTKSMSSMVSDTSCTFPSGDGIFWVHWIQTKDGQCGSPLVSTRDGFIVGIHSASNFTNTNNYFTSVPKNFMELLTNQEAQQWVSGWRLNADSVLWGGHKVFMVKPEEPFQPVKEATQL [K142V], the “area with substrate EALYFQS” value turned out to be 0.119, the “area with substrate ECLYFQS” value turned out to be 0.1, the “area with substrate EELYFQS” value amounted to 0.11 and the “area with substrate EHLYFQS” value was found to be 0.107. For the same variant, the “area with substrate EILYFQS” value worked out at 0.109, the “area with substrate EKLYFQS” value was found to be 0.111, the “area with substrate EMLYFQS” value was 0.0996 and the “area with substrate ERLYFQS” value worked out at 0.0934. In addition, the “area with substrate ESLYFQS” value is 0.111 and the “area with substrate EYLYFQS” value was found to be 0.0563.

Turning to MGESLFKGPRDYNPISSSICHLTNESDGHTTSLYGIGFGPFIITNKHLFRRNNGTLVVQSLHGVFKVKDTTTLQQHLVDGRDMIIIRMPKDFPPFPQKLKFREPQREERICLVTTNFQTKSMSSMVSDTSCTFPSGDGIFWCHWIQTKDGQCGSPLVSTRDGFIVGIHSASNFTNTNNYFTSVPKNFMELLTNQEAQQWVSGWRLNADSVLWGGHKVFMVKPEEPFQPVKEATQL [K142C], the “area with substrate EALYFQS” value turned out to be 0.0914, the “area with substrate ECLYFQS” value is 0.0934, the “area with substrate EDLYFQS” value amounted to 0.111 and the “area with substrate EELYFQS” value turned out to be 0.128. Also, the “area with substrate EFLYFQS” value was 0.0716, the “area with substrate EGLYFQS” value was determined as 0.0933, the “area with substrate EILYFQS” value was 0.0858 and the “area with substrate EKLYFQS” value is 0.0862. The “area with substrate ELLYFQS” value is 0.0869, the “area with substrate EPLYFQS” value stood at 0.138, the “area with substrate EQLYFQS” value turned out to be 0.11 and the “area with substrate ERLYFQS” value came out at 0.0896. Besides, the “area with substrate ESLYFQS” value was determined as 0.0873, the “area with substrate ETLYFQS” value came out at 0.0715, the “area with substrate EVLYFQS” value stood at 0.0846 and the “area with substrate EWLYFQS” value worked out at 0.136. Further, the “area with substrate EYLYFQS” value stood at 0.0995.

On to MGESLFKGPRDYNPISSSICHLTNESDGHTTSLYGIGFGPFIITNKHLFRRNNGTLVVQSLHGVFKVKDTTTLQQHLVDGRDMIIIRMPKDFPPFPQKLKFREPQREERICLVTTNFQTKSMSSMVSDTSCTFPSGDGIFWKHWHQTKDGQCGSPLVSTRDGFIVGIHSASNFTNTNNYFTSVPKNFMELLTNQEAQQWVSGWRLNADSVLWGGHKVFMVKPEEPFQPVKEATQL [I145H], for which the “area with substrate EALYFQS” value came to 0.104, the “area with substrate ECLYFQS” value turned out to be 0.0934, the “area with substrate EELYFQS” value was found to be 0.0969 and the “area with substrate EGLYFQS” value is 0.122. The “area with substrate EHLYFQS” value is 0.0611, the “area with substrate EILYFQS” value was found to be 0.0694, the “area with substrate EKLYFQS” value came to 0.0684 and the “area with substrate ERLYFQS” value was 0.114. Also, the “area with substrate ESLYFQS” value came to 0.0952.

For MGESLFKGPRDYNPISSSICHLTNESDGHTTSLYGIGFGPFIITNKHLFRRNNGTLVVQSLHGVFKVKDTTTLQQHLVDGRDMIIIRMPKDFPPFPQKLKFREPQREERICLVTTNFQTKSMSSMVSDTSCTFPSGDGIFWKHWWQTKDGQCGSPLVSTRDGFIVGIHSASNFTNTNNYFTSVPKNFMELLTNQEAQQWVSGWRLNADSVLWGGHKVFMVKPEEPFQPVKEATQL [I145W], the “area with substrate EALYFQS” value was 0.0595, the “area with substrate ECLYFQS” value is 0.0494, the “area with substrate EDLYFQS” value is 0.0511 and the “area with substrate EELYFQS” value amounted to 0.0645. Further, the “area with substrate EFLYFQS” value was found to be 0.0499, the “area with substrate EGLYFQS” value is 0.0551, the “area with substrate EILYFQS” value was found to be 0.0724 and the “area with substrate EKLYFQS” value turned out to be 0.053. Further, the “area with substrate ELLYFQS” value amounted to 0.0765, the “area with substrate EMLYFQS” value worked out at 0.024, the “area with substrate EQLYFQS” value worked out at 0.0534 and the “area with substrate ESLYFQS” value turned out to be 0.0456. Besides, the “area with substrate EVLYFQS” value is 0.0582 and the “area with substrate EWLYFQS” value amounted to 0.0412.

MGESLFKGPRDYNPISSSICHLTNESDGHTTSLYGIGFGPFIITNKHLFRRNNGTLVVQSLHGVFKVKDTTTLQQHLVDGRDMIIIRMPKDFPPFPQKLKFREPQREERICLVTTNFQTKSMSSMVSDTSCTFPSGDGIFVKHWIQTKDGQCGSPLVSTRDGFIVGIHSASNFTNTNNYFTSVPKNFMELLTNQEAQQWVSGWRLNADSVLWGGHKVFMVKPEEPFQPVKEATQL [W141V]: the “area with substrate EALYFQS” value was 0.0773, the “area with substrate ECLYFQS” value was 0.0709, the “area with substrate EDLYFQS” value turned out to be 0.0818 and the “area with substrate EELYFQS” value worked out at 0.0766. In addition, the “area with substrate EFLYFQS” value turned out to be 0.0664, the “area with substrate EGLYFQS” value was found to be 0.0738, the “area with substrate EHLYFQS” value stood at 0.107 and the “area with substrate EILYFQS” value was found to be 0.0644. The “area with substrate EKLYFQS” value came out at 0.067, the “area with substrate EPLYFQS” value was found to be 0.0932, the “area with substrate EQLYFQS” value was found to be 0.0865 and the “area with substrate ESLYFQS” value came out at 0.0724. Moreover, the “area with substrate EVLYFQS” value stood at 0.0696.

For the variant MGESLFKGPRDYNPISSSICHLTNESDGHTTSLYGIGFGPFIITNKHLFRRNNGTLVVQSLHGVFKVKDTTTLQQHLVDGRDMIIIRMPKDFPPFPQKLKFREPQREERICLVTTNFQTKSMSSMVSDTSCTFPSGDGIFTKHWIQTKDGQCGSPLVSTRDGFIVGIHSASNFTNTNNYFTSVPKNFMELLTNQEAQQWVSGWRLNADSVLWGGHKVFMVKPEEPFQPVKEATQL [W141T], the “area with substrate EALYFQS” value was 0.0597, the “area with substrate ECLYFQS” value came out at 0.0701, the “area with substrate EDLYFQS” value amounted to 0.0655 and the “area with substrate EELYFQS” value was found to be 0.055. The “area with substrate EGLYFQS” value was found to be 0.061, the “area with substrate EILYFQS” value was found to be 0.0516, the “area with substrate EKLYFQS” value is 0.0637 and the “area with substrate ELLYFQS” value worked out at 0.0698. The “area with substrate EMLYFQS” value worked out at 0.0695, the “area with substrate EPLYFQS” value came out at 0.0632, the “area with substrate EQLYFQS” value worked out at 0.0581 and the “area with substrate ESLYFQS” value was 0.07. Further, the “area with substrate ETLYFQS” value stood at 0.0601, the “area with substrate EVLYFQS” value worked out at 0.0582 and the “area with substrate EWLYFQS” value is 0.0666.

On to MGESLFKGPRDYNPISSSICHLTNESDGHTTSLYGIGFGPFIITNKHLFRRNNGTLVVQSLHGVFKVKDTTTLQQHLVDGRDMIIIRMPKDFPPFPQKLKFREPQREERICLVTTNFQTKSMSSMVSDTSCTFPSGDGIFYKHWIQTKDGQCGSPLVSTRDGFIVGIHSASNFTNTNNYFTSVPKNFMELLTNQEAQQWVSGWRLNADSVLWGGHKVFMVKPEEPFQPVKEATQL [W141Y], for which the “area with substrate EALYFQS” value was found to be 0.112, the “area with substrate ECLYFQS” value was 0.0743, the “area with substrate EELYFQS” value came out at 0.135 and the “area with substrate EGLYFQS” value worked out at 0.0835. Besides, the “area with substrate EKLYFQS” value came to 0.0729, the “area with substrate EMLYFQS” value was determined as 0.0578, the “area with substrate EQLYFQS” value was 0.0958 and the “area with substrate ERLYFQS” value stood at 0.0776. Further, the “area with substrate ESLYFQS” value was determined as 0.0753 and the “area with substrate EYLYFQS” value stood at 0.101.

As for MGESLFKGPRDYNPISSSICHLTNESDGHTTSLYGIGFGPFIITNKHLFRRNNGTLVVQSLHGVFKVKDTTTLQQHLVDGRDMIIIRMPKDFPPFPQKLKFREPQREERICLVTTNFQTKSMSSMVSDTSCTFPSSDGIFWKHWIQTKDGQCGSPLVSTRDGFIVGIHSASNFTNTNNYFTSVPKNFMELLTNQEAQQWVSGWRLNADSVLWGGHKVFMVKPEEPFQPVKEATQL [G136S], the “area with substrate EALYFQS” value came to 0.131, the “area with substrate ECLYFQS” value turned out to be 0.0483, the “area with substrate EELYFQS” value worked out at 0.128 and the “area with substrate EILYFQS” value is 0.103. The “area with substrate EKLYFQS” value was determined as 0.102, the “area with substrate ELLYFQS” value came out at 0.119, the “area with substrate EMLYFQS” value was determined as 0.127 and the “area with substrate EPLYFQS” value is 0.115. For the same variant, the “area with substrate EQLYFQS” value came to 0.111, the “area with substrate ESLYFQS” value came out at 0.0964, the “area with substrate ETLYFQS” value stood at 0.0945 and the “area with substrate EVLYFQS” value is 0.079.

With MGESLFKGPRDYNPISSSICHLTNESDGHTTSLYGIGFGPFIITNKHLFRRNNGTLVVQSLHGVFKVKDTTTLQQHLVDGRDMIIIRMPKDFPPFPQKLKFREPQREERICLVTTNFQTKSMSSMVSDTSCTFKSGDGIFWKHWIQTKDGQCGSPLVSTRDGFIVGIHSASNFTNTNNYFTSVPKNFMELLTNQEAQQWVSGWRLNADSVLWGGHKVFMVKPEEPFQPVKEATQL [P134K], the “area with substrate EALYFQS” value stood at 0.118, the “area with substrate ECLYFQS” value worked out at 0.102, the “area with substrate EILYFQS” value turned out to be 0.0706 and the “area with substrate EKLYFQS” value amounted to 0.0981. Besides, the “area with substrate EQLYFQS” value was 0.119, the “area with substrate ESLYFQS” value is 0.0958, the “area with substrate ETLYFQS” value was found to be 0.165 and the “area with substrate EWLYFQS” value was 0.0999.
